Laboratory results reported in the supplement of paper PMC6531468.
Some of the results follow. These are enrichments in a pooled selection; single values are uncertain. Scores sum up all selected molecules that hold the word; the word was not tested alone.

Legend:
Assay in all cases: 6-mer SELEX enrichment z-score vs GST control; IMP3 is the RNA-binding protein IGF2BP3; higher = more enriched by binding
IMP3 KH1-4 = conditions: construct: KH1-4 (164-579); SELEX round: R4
Description: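 SELEX-seq with GST-tagged IMP3 KH1-4 (Pro164-Lys579) and an N40 RNA pool, round 4. 6-mer z-score of sequence-tag enrichment normalised to the corresponding GST SELEX round; RNA k-mers written as DNA (T for U).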

IMP3 RRM1-2 = conditions: construct: RRM1-2 (1-163); SELEX round: R2
Description: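 SELEX-seq with GST-tagged IMP3 RRM1-2 (Met1-Asn163) and an N40 RNA pool, round 2. 6-mer enrichment z-score normalised to GST SELEX. RNA written as DNA (T = U).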

IMP3 full-length = IMP3 full-length (UniProt O00425); conditions: construct: FL IMP3 (1-579); SELEX round: R4
Description: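 SELEX-seq with GST-tagged full-length IMP3 and an N40 RNA pool, round 4. Each 6-mer is scored as an enrichment z-score of sequence tags containing it, normalised to the matching GST SELEX round. RNA written as DNA (T = U).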

IMP3 KH1-2 = conditions: construct: KH1-2 (164-376); SELEX round: R4
Description: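 SELEX-seq with GST-tagged IMP3 KH1-2 (Pro164-Phe376) and an N40 RNA pool, round 4 (stringent 300/600 mM KCl washes). 6-mer z-score of sequence-tag enrichment normalised to the corresponding GST SELEX round; RNA k-mers written as DNA (T for U).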

IMP3 KH3-4 = conditions: construct: KH3-4 (377-579); SELEX round: R4
Description: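 SELEX-seq with GST-tagged IMP3 KH3-4 (Pro377-Lys579) and an N40 RNA pool, round 4. 6-mer z-score of sequence-tag enrichment normalised to the corresponding GST SELEX round; RNA k-mers written as DNA (T for U).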

Sequence of IMP3 RRM1-2 (chain, as listed by the source): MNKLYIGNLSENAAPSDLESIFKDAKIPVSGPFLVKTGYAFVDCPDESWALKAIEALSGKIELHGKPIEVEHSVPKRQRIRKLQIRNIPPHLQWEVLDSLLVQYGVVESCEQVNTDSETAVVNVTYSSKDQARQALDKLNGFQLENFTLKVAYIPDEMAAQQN
Sequence of IMP3 KH1-2 (chain, as listed by the source): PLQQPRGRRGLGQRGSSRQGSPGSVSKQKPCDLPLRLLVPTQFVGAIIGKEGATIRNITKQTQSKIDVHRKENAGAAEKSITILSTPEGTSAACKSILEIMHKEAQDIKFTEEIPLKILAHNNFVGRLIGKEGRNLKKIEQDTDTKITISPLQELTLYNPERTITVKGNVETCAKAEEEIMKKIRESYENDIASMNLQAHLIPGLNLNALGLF
Sequence of IMP3 KH1-4 (chain, as listed by the source): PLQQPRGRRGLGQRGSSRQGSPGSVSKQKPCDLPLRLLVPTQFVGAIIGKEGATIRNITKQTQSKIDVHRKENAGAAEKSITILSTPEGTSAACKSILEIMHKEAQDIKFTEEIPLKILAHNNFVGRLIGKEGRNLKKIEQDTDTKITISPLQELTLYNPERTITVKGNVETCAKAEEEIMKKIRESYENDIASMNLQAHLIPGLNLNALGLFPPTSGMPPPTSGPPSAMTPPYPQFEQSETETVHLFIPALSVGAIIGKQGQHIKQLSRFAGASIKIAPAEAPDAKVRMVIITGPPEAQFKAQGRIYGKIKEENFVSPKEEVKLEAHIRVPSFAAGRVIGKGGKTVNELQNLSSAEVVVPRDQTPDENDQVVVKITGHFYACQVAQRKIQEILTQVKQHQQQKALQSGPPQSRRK
Sequence of IMP3 KH3-4 (chain, as listed by the source): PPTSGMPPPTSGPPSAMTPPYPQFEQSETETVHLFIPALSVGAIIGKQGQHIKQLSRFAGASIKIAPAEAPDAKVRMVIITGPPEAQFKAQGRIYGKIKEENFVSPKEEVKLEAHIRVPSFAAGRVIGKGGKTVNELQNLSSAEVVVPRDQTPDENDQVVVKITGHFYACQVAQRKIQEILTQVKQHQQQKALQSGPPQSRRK
Sequence of UniProt O00425 (O00425 whole entry): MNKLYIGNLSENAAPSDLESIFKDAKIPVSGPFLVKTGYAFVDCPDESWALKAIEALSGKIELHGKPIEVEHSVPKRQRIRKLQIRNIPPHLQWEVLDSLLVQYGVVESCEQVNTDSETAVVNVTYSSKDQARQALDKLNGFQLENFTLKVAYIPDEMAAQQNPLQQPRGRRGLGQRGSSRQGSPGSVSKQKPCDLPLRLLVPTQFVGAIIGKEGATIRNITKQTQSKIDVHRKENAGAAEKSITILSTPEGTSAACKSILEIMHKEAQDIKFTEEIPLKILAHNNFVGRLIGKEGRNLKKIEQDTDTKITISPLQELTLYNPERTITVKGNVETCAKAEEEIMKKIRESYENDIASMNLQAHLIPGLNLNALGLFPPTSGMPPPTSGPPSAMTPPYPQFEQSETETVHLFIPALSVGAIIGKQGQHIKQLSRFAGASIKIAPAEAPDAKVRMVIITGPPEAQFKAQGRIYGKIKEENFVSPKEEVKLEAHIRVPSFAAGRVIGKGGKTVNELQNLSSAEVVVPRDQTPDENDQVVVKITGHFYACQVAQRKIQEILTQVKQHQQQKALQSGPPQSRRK

Row | Sequence | 6-mer SELEX enrichment z-score (IMP3 KH1-4) | 6-mer SELEX enrichment z-score (IMP3 RRM1-2) | 6-mer SELEX enrichment z-score (IMP3 full-length) | 6-mer SELEX enrichment z-score (IMP3 KH1-2) | 6-mer SELEX enrichment z-score (IMP3 KH3-4)
1 | CCTTAG | -0.18 | -0.102 | -0.349 | -0.205 | -0.216
2 | CGTGCG | -1.36 | 0.093 | -0.476 | -1.15 | -1.1
3 | TTCTAA | 0.57 | -0.061 | -0.129 | 0.586 | 0.703
4 | TCACTA | 1.17 | 1.37 | 0.834 | 1.12 | 0.764
5 | GCTGGG | 0.221 | 0.232 | 0.441 | 0.421 | 0.307
6 | TGTATA | 0.879 | -0.023 | 0.04 | 0.612 | 1.19
7 | CTCATG | -0.159 | 0.588 | 0.344 | -0.199 | -0.295
8 | AAGCAT | -0.189 | 0.833 | 0.326 | -0.369 | -0.247
9 | AAGGGC | -0.622 | -0.173 | 0.025 | -0.485 | -0.03
10 | TGATAC | 0.263 | -0.349 | -0.153 | 0.147 | 0.212
11 | AACACG | 0.358 | 0.882 | 0.873 | 0.098 | 0.188
12 | TCTCTG | -0.16 | 0.418 | 0.039 | -0.078 | -0.125
13 | CTCCGG | -0.603 | -0.109 | -0.035 | -0.456 | -0.66
14 | ACTGCC | -0.142 | -0.421 | -0.627 | -0.076 | -0.807
15 | GAACAT | 1.14 | 0.616 | 1.12 | 0.84 | 1.21
16 | CGGCGT | -0.736 | 0.301 | 0.39 | -0.617 | -0.457
17 | ACTGGT | -0.147 | 0.107 | -0.111 | -0.172 | -0.164
18 | GACTGC | -0.019 | -0.433 | -0.33 | -0.076 | -0.434
19 | GCCGCT | 0.171 | 0.076 | 0.282 | 0.323 | -0.005
20 | TGATAG | 0.611 | -0.203 | -0.142 | 0.344 | 0.81
